According to patent US8389512B2 (priority 2008, dated 2013):
Further values from the same series stand in other lists.

Test: 24 hr in-vivo study: meloxicam plasma concentration and pharmacokinetics after oral (gavage) administration to male rats
Details: 1 mg/kg oral
From the text: Male Sprague-Dawley rats, 250-300 g, received with a surgically implanted jugular catheter in place from (Harlan or Taconic Laboratories, USA). Animals were housed one per polycarbonate cage utilizing individual cage cards, with free access to food and water in accordance with NIH guidelines. Animals were quarantined at least 24 hrs after arrival prior to use and patency of the implanted catheter determined on the day of the test. Environmental controls for the animal room were set to maintain 18 to 26° C., a relative humidity of 30 to 70%, a minimum of 10 air changes/hour, and a 12-hour light/12-hour dark cycle. Rats historically have been used in safety evaluation and PK screening studies and are recommended by appropriate regulatory agencies. […] Each rat was weighed and the dose volume adjusted accordingly so that the effect of weight variability on results of study was eliminated and that each rat received 1 mg/kg dose.
Pharmacokinetic parameters were calculated from individual animal samples using appropriate software (PK Solutions 2.0, Summit Research Services, Montrose, Calif., USA).

`Cc1cnc(NC(=O)C2=C(O)c3ccccc3S(=O)(=O)N2C)s1.O=C(O)/C=C\C(=O)O` [Cocrystal 21, Meloxicam:Maleic Acid Cocrystal (1:1)] showed a meloxicam plasma concentration (N = 5, 0.0833 hour) of 0.3 µg/mL, a meloxicam plasma concentration (N = 5, 0.75 hour) of 0.78 µg/mL and a meloxicam plasma concentration (N = 5, 1 hour) of 0.86 µg/mL. The meloxicam plasma concentration (N = 5, 2 hour) was 1.31 µg/mL, the meloxicam plasma concentration (N = 5, 8 hour) was 1.34 µg/mL and the meloxicam plasma concentration (N = 5, 12 hour) was 1.11 µg/mL. The meloxicam plasma concentration (N = 5, 24 hour) was 0.7 µg/mL.
In the case of `Cc1cnc(NC(=O)C2=C(O)c3ccccc3S(=O)(=O)N2C)s1.O=C(O)c1ccc2ccccc2c1O` [Cocrystal 76, Meloxicam: 1-Hydroxy-2-Naphthoic Acid Cocrystal (1:1)], the meloxicam plasma concentration (N = 5, 0.0833 hour) is reported as 0.34 µg/mL, the meloxicam plasma concentration (N = 5, 0.75 hour) is reported as 2.74 µg/mL and the meloxicam plasma concentration (N = 5, 1 hour) is reported as 3.04 µg/mL. For the same molecule, the meloxicam plasma concentration (N = 5, 2 hour) was 3.94 µg/mL, the meloxicam plasma concentration (N = 5, 8 hour) was 3.33 µg/mL and the meloxicam plasma concentration (N = 5, 12 hour) was 2.55 µg/mL. It also gave a meloxicam plasma concentration (N = 5, 24 hour) of 1.48 µg/mL.
Molecule `Cc1cnc(NC(=O)C2=C(O)c3ccccc3S(=O)(=O)N2C)s1.O=C(O)c1ccccc1O` [Cocrystal 88, Meloxicam:Salicylic Acid Cocrystal Form III (1:1)] has a meloxicam plasma concentration (N = 5, 0.0833 hour) of 0.145 µg/mL, a meloxicam plasma concentration (N = 5, 0.75 hour) of 1.0625 µg/mL and a meloxicam plasma concentration (N = 5, 1 hour) of 1.2825 µg/mL. It also gave a meloxicam plasma concentration (N = 5, 2 hour) of 2.06 µg/mL, a meloxicam plasma concentration (N = 5, 8 hour) of 1.7 µg/mL and a meloxicam plasma concentration (N = 5, 12 hour) of 1.1425 µg/mL. For the same molecule, the meloxicam plasma concentration (N = 5, 24 hour) was 0.5 µg/mL.
Molecule `Cc1cnc(NC(=O)C2=C(O)c3ccccc3S(=O)(=O)N2C)s1.Cc1cnc(NC(=O)C2=C(O)c3ccccc3S(=O)(=O)N2C)s1.O=C(O)CCC(=O)O` [Cocrystal 144, Meloxicam:Succinic Acid Cocrystal (2:1)] has a meloxicam plasma concentration (N = 5, 0.0833 hour) of 0.03 µg/mL, a meloxicam plasma concentration (N = 5, 0.5 hour) of 0.45 µg/mL and a meloxicam plasma concentration (N = 5, 0.75 hour) of 0.6 µg/mL. For the same molecule, the meloxicam plasma concentration (N = 5, 1 hour) was 0.96 µg/mL, the meloxicam plasma concentration (N = 5, 2 hour) was 1.5 µg/mL and the meloxicam plasma concentration (N = 5, 8 hour) was 1.6 µg/mL. It also gave a meloxicam plasma concentration (N = 5, 12 hour) of 1.26 µg/mL and a meloxicam plasma concentration (N = 5, 24 hour) of 0.58 µg/mL.
